# Data as given in the supplement of paper PMC9135407.
# Values joined by “and” are separate entries in the source; they are usually repeats but may differ in a detail not shown here. Equal values may be shown once. Where a name gives a salt, the structure may show the parent alone. Among all 5,800 compounds or so, about 620 (11%) showed activity.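 How the source made its calls: active = score above a cut-off or among the top three wells of a plate; in these data no inactive exceeds 0.85.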 This is a selection; strong and weak results do not stand in their true shares.
# Test system: primary human hepatic stellate cells (donor 1)
# Assay: scaled lipid accumulation score (0 = DMSO-like, 1 = nortriptyline-like); higher = stronger HSC inactivation (lipid re-accumulation), active = hit call of the paper
# Settings: 48 h
# [1] = library stock concentration: 10 mM
# [2] = library stock concentration: 3.33 mM
# [3] = library stock concentration: 1 mM
# [4] = library stock concentration: 80 uM
# [5] = library stock concentration: 400 uM
# [6] = library stock concentration: 2 mM
compound,measurement,setting,value
CN(C)CCCN1c2ccccc2Sc2ccccc21 [Promazine hydrochloride],scaled lipid accumulation score,,inactive: 0.365
same,scaled lipid accumulation score,library stock concentration: 6.2 mM,inactive: 0.834
same,scaled lipid accumulation score,[1],inactive: 0.324
NS(=O)(=O)c1cc(C(=O)O)cc(N2CCCC2)c1Oc1ccccc1 [Piretanide],scaled lipid accumulation score,,inactive: 0.015
O=C[C@H](O)[C@@H](O)[C@H](O)CO [Xylose],scaled lipid accumulation score,[2],inactive: ≤ 0
same,scaled lipid accumulation score,[1],inactive: 0.028
CC(=O)O[C@]1(C(C)=O)CC[C@H]2[C@@H]3C[C@H](C)C4=CC(=O)C=C[C@]4(C)[C@@]3(F)[C@@H](O)C[C@@]21C [Fluorometholone Acetate],scaled lipid accumulation score,[2],inactive: ≤ 0
same,scaled lipid accumulation score,[1],inactive: ≤ -0.001
CCCCCCCCCCCCCCCCOC[C@H](COP(=O)([O-])OCC[N+](C)(C)C)SC(C)=O [2-thio-PAF],scaled lipid accumulation score,[3],inactive: ≤ 0
COc1ccc([C@@H]2CC(=O)c3c(O)cc(O[C@@H]4O[C@H](CO[C@@H]5O[C@@H](C)[C@H](O)[C@@H](O)[C@H]5O)[C@@H](O)[C@H](O)[C@H]4O)cc3O2)cc1O [Hesperidin],scaled lipid accumulation score,,inactive: ≤ 0
same,scaled lipid accumulation score,[2],inactive: 0.012
same,scaled lipid accumulation score,[1],inactive: ≤ 0
O=c1cc(N2CCOCC2)oc2c(-c3cccc4c3sc3ccccc34)cccc12,scaled lipid accumulation score,[4],inactive: ≤ 0
same,scaled lipid accumulation score,[5],inactive: ≤ 0
same,scaled lipid accumulation score,[6],inactive: ≤ 0
same,scaled lipid accumulation score,[2],inactive: ≤ 0
same,scaled lipid accumulation score,[1],inactive: ≤ 0
CC(C)(C(=O)O)c1ccc(C(O)CCCN2CCC(C(O)(c3ccccc3)c3ccccc3)CC2)cc1 (configuration not stated) [Fexofenadine hydrochloride],scaled lipid accumulation score,[1],inactive: ≤ -0.07 and inactive: 0.008
CC(C)(C(=O)O)c1ccc(C(O)CCCN2CCC(C(O)(c3ccccc3)c3ccccc3)CC2)cc1 (configuration not stated) [Fexofenadine HCl],scaled lipid accumulation score,,inactive: ≤ 0
same,scaled lipid accumulation score,[2],inactive: ≤ 0
same,scaled lipid accumulation score,[1],inactive: 0.057
CC(C)(C(=O)O)c1ccc(C(O)CCCN2CCC(C(O)(c3ccccc3)c3ccccc3)CC2)cc1 (configuration not stated),scaled lipid accumulation score,[1],inactive: ≤ 0
CC(N)=NCCCC[C@H](N)C(=O)O [L-N6-(1-Iminoethyl)lysine hydrochloride],scaled lipid accumulation score,[1],inactive: ≤ -0.055
Cn1cc(-c2ccc3ncc(Cc4ccc5ncccc5c4)n3n2)cn1,scaled lipid accumulation score,[2],inactive: ≤ 0
same,scaled lipid accumulation score,[1],inactive: ≤ 0
CN1C(C)(C)CCCC1(C)C [Pempidine tartrate],scaled lipid accumulation score,,inactive: ≤ 0
same,scaled lipid accumulation score,[1],inactive: 0.064
CN(C)CCCN1c2ccccc2CCc2ccccc21.Cl [Imipramine hydrochloride],scaled lipid accumulation score,[1],active: 1.1
CC1(C)Oc2ccc(C#N)cc2[C@@H](N2CCCC2=O)[C@@H]1O [Levcromakalim],scaled lipid accumulation score,[1],inactive: ≤ 0
Cc1onc(-c2c(Cl)cccc2Cl)c1C(=O)N[C@@H]1C(=O)N2[C@@H]1SC(C)(C)[C@@H]2C(=O)O [Dicloxacillin sodium],scaled lipid accumulation score,[1],inactive: ≤ 0
Cc1onc(-c2c(Cl)cccc2Cl)c1C(=O)N[C@@H]1C(=O)N2[C@@H]1SC(C)(C)[C@@H]2C(=O)O [Dicloxacillin Sodium],scaled lipid accumulation score,[2],inactive: ≤ 0
same,scaled lipid accumulation score,[1],inactive: 0.136
Cc1onc(-c2c(Cl)cccc2Cl)c1C(=O)N[C@@H]1C(=O)N2[C@@H]1SC(C)(C)[C@@H]2C(=O)O,scaled lipid accumulation score,[1],inactive: ≤ 0
Cc1onc(-c2c(Cl)cccc2Cl)c1C(=O)N[C@@H]1C(=O)N2[C@@H]1SC(C)(C)[C@@H]2C(=O)O [Dicloxacillin sodium salt],scaled lipid accumulation score,,inactive: ≤ 0
Cc1cc(NC(=O)Nc2ccc(N(C)C)cc2)c2cc(F)cc(F)c2n1,scaled lipid accumulation score,[2],inactive: 0.007
same,scaled lipid accumulation score,[1],inactive: 0.001 and inactive: ≤ -0.006
CCCCC[C@H](O)C/C=C1/C(=O)C[C@H](O)[C@@H]1C/C=C\CCCC(=O)O [.DELTA.12-Prostaglandin D2],scaled lipid accumulation score,[3],inactive: ≤ 0
CN(C)/N=N/c1[nH]cnc1C(N)=O [Dacarbazine],scaled lipid accumulation score,,inactive: 0.09
same,scaled lipid accumulation score,[2],inactive: ≤ 0
same,scaled lipid accumulation score,[1],inactive: ≤ 0
same,scaled lipid accumulation score,library stock concentration: 11 mM,inactive: ≤ 0 and inactive: 0.023
CCCCCCCCc1ccc(-c2ccc(C(=O)O)cc2)cc1,scaled lipid accumulation score,[1],inactive: ≤ 0 and inactive: 0.032
CC[N+](C)(C)Cc1ccccc1Br [Bretylium tosylate],scaled lipid accumulation score,,inactive: ≤ 0
same,scaled lipid accumulation score,library stock concentration: 4.8 mM,inactive: ≤ 0
same,scaled lipid accumulation score,[1],inactive: ≤ 0
Cc1ccc(/C=C2\CNC/C(=C\c3ccc(C)cc3)C2=O)cc1.Cl,scaled lipid accumulation score,[1],active: 1.43
C[N+](C)(C)CCCCCC[N+](C)(C)C [Hexamethonium dichloride],scaled lipid accumulation score,[1],inactive: ≤ -0.07
C[N+](C)(C)CCCCCC[N+](C)(C)C [Hexamethonium bromide],scaled lipid accumulation score,[1],inactive: 0.261 and inactive: 0.089
C[N+](C)(C)CCCCCC[N+](C)(C)C [Hexamethonium dibromide dihydrate],scaled lipid accumulation score,,inactive: ≤ 0
CC1C(=O)OC2C(O)C34C5CC(C(C)(C)C)C36C(OC(=O)C6O)OC4(C(=O)O5)C12O (configuration not stated) [Ginkgolide B],scaled lipid accumulation score,[2],inactive: 0.008
same,scaled lipid accumulation score,[1],inactive: ≤ 0 and inactive: ≤ -0.006
CC[C@]1(O)C[C@@H]2CN(CCc3c([nH]c4ccccc34)[C@@](C(=O)OC)(c3cc4c(cc3OC)N(C=O)[C@H]3[C@@](O)(C(=O)OC)[C@H](OC(C)=O)[C@]5(CC)C=CCN6CC[C@]43[C@@H]65)C2)C1.O=S(=O)(O)O,scaled lipid accumulation score,[1],active: 1.47
CC1CC(OC(=O)C(O)c2ccccc2)CC(C)(C)C1 (configuration not stated),scaled lipid accumulation score,[1],inactive: 0.065
CC1CC(OC(=O)C(O)c2ccccc2)CC(C)(C)C1 (configuration not stated) [Cyclandelate],scaled lipid accumulation score,[2],inactive: ≤ 0
same,scaled lipid accumulation score,[1],inactive: 0.196
O=C(O)c1cccnc1Nc1cccc(C(F)(F)F)c1 [Niflumic Acid],scaled lipid accumulation score,[3],inactive: ≤ 0
O=C(O)c1cccnc1Nc1cccc(C(F)(F)F)c1 [Niflumic acid],scaled lipid accumulation score,,inactive: 0.004
same,scaled lipid accumulation score,[2],inactive: ≤ 0
same,scaled lipid accumulation score,library stock concentration: 7.1 mM,inactive: 0.006
same,scaled lipid accumulation score,[1],inactive: ≤ 0 and inactive: 0.007
same,scaled lipid accumulation score,library stock concentration: 17.7 mM,inactive: ≤ -0.02
O=c1[nH]c2cc(C(F)(F)F)c(N3CCOCC3)cc2n(CP(=O)(O)O)c1=O,scaled lipid accumulation score,[1],inactive: 0.046
Cc1oncc1C(=O)Nc1ccc(C(F)(F)F)cc1 [Leflunomide],scaled lipid accumulation score,,inactive: ≤ 0
same,scaled lipid accumulation score,[4],inactive: 0.045
same,scaled lipid accumulation score,[5],inactive: ≤ 0
same,scaled lipid accumulation score,[6],inactive: ≤ 0
same,scaled lipid accumulation score,[2],inactive: ≤ 0
